In PubChem BioAssay (NCATS):
The shares of active, inactive and inconclusive entries below differ from those in the screen. A potency beside an inconclusive call is a rough fit, not a confirmed value. The source made the active and inactive calls. The call rests on the fitted dose curve; in most records, active means well fitted inhibition curve with a large enough effect; inconclusive means small, poorly fitted or top-dose-only effect; inactive means no such curve, though single readings can be large or run the other way.

assay: BET inhibitor-based combinations targeting novel dependencies in MECOM-rearranged (r) AML: MV-4-11 cell line (AID 2202233); settings: MV-4-11 AML viability, CellTiter-Glo luminescence, 48 h; viability, % of control: at 46 µM (top of the series) unless noted; further: nearly all actives have a fitted effect of over 45% in size;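 on viability, % of control: plate controls were DMSO for no effect and blank wells for full effect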
Summary of the method: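 Using pin-tool transfer, drugs were added in 11 doses to cells (500/well), incubated 48 hr, and assessed with CellTiter-Glo. Z-AUC is a mean-centring transformation applied separately to each screened line.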
Potency means the concentration at half of the fitted maximal effect; tags describe the fitted curve by direction and shape.

SMILES	Potency	viability, % of control
O=C(O)C1=CC(O)C(O)[C@H](O)C1 (some centres undefined)	inactive	–
O=C(Nc1cccc(C(F)(F)F)c1)c1cccc2cc(Oc3cc(CO)ncn3)ccc12	inconclusive: 0.833 µM [inhibitor, full curve, poor fit]	–
COc1c(N2C[C@@H]3CCCN[C@H]3C2)c(F)cc2c(=O)c(C(=O)O)cn(C3CC3)c12	inconclusive: 20.9 µM [inhibitor, partial curve, poor fit]	–
CN1CCCN(C(=O)c2cccc(-c3ccc(/C=C4/C(=O)Nc5ccc(Cl)cc54)o3)c2)CC1	active: 0.662 µM	–
CCOC(=O)c1ccnc(CNCC(=O)N(CC)CCN(C)C)c1	inactive	–
CCOC(=O)[C@H](CCc1ccccc1)N[C@H]1CS[C@H](c2cccs2)CN(CC(=O)O)C1=O	active: 20.9 µM	–
CC[C@H](C)C(=O)O[C@H]1C[C@H](O)C=C2C=C[C@H](C)[C@H](CC[C@@H](O)C[C@@H](O)CC(=O)O)[C@H]21	inactive	–
Cc1ccc(/C=N/NC(=O)c2ccccc2Oc2ccccc2)o1	inconclusive: 0.001 µM [inhibitor]	–
C=C1c2cccc(O)c2C(O)=C2C(=O)[C@@]3(O)C(O)=C(C(N)=O)C(=O)[C@@H](N(C)C)[C@@H]3[C@@H](O)[C@H]12	inactive	–
CCNC(=O)[C@H]1O[C@@H](n2cnc3c(N)nc(NCCc4ccc(CCC(=O)O)cc4)nc32)[C@H](O)[C@@H]1O	inconclusive: 18.6 µM [inhibitor, partial curve, poor fit]	–
N=C(N)c1ccc(OCCCCCOc2ccc(C(=N)N)cc2)cc1	active: 13.2 µM	–
C#Cc1cccc(Nc2ncnc3cc4c(cc23)OCCOCCOCCO4)c1	inconclusive: 9.34 µM [inhibitor, partial curve]	–
CC[C@@H]1C(=O)N(C)c2cnc(Nc3ccc(C(=O)NC4CCN(C)CC4)cc3OC)nc2N1C1CCCC1	active: 0.105 µM	–
O=C1c2ccccc2-[n+]2ccc3c([nH]c4ccccc43)c21	active: 1.48 µM	–
CC(=O)CC(c1ccccc1)c1c(O)c2ccccc2oc1=O (centres undefined)	inconclusive: 11.8 µM [inhibitor, single point]	–
CC1=C(c2ccc(O)cc2)[C@H](c2ccc(OCCN3CCCCC3)cc2)Oc2cc(O)ccc21	inconclusive: 23.5 µM [inhibitor, partial curve, poor fit]	–
Cn1c(NCCN(CCO)CCCc2ccc([N+](=O)[O-])cc2)cc(=O)n(C)c1=O	inactive	–
CCCNC(=O)c1cn2ncnc(Nc3cc(C(=O)NC4CC4)ccc3C)c2c1C	inactive	–
O=C(O)Cn1nnc(-c2cc(N3CCC(Oc4cc(F)ccc4Br)CC3)no2)n1	inactive	–
CN(C)c1cc(NC(=O)CNC(C)(C)C)c(O)c2c1C[C@H]1C[C@H]3[C@H](N(C)C)C(=O)C(C(N)=O)=C(O)[C@]3(O)C(=O)C1=C2O	inactive	–
COc1nc(C)nc(Cl)c1NC1=NCCN1	inconclusive: 52.5 µM [inhibitor, single point]	–
O=C(O)c1ccccc1-c1ccc(/C=c2\sc3nc4cc(Br)cnc4n3c2=O)o1	–	inconclusive: 85.2% [inhibitor] [at 15.6 µM]
O=[N+]([O-])c1cncn1CCN1CCOCC1	inconclusive: 29.5 µM [inhibitor, partial curve, poor fit]	–
CN1CCC(=C2c3ccccc3CC(=O)c3sccc32)CC1	inconclusive: 37.2 µM [inhibitor, single point]	–
CCC[C@H](NC(=O)[C@@H]1[C@H]2CCC[C@H]2CN1C(=O)[C@@H](NC(=O)[C@@H](NC(=O)c1cnccn1)C1CCCCC1)C(C)(C)C)C(=O)C(=O)NC1CC1	inconclusive: 26.3 µM [inhibitor, partial curve, poor fit]	–
COc1ccc(-c2oc3c(CC=C(C)C)c(OC4O[C@H](CO)[C@@H](O)[C@H](O)[C@H]4O)cc(O)c3c(=O)c2OC2O[C@@H](C)[C@H](O)[C@@H](O)[C@H]2O)cc1 (some centres undefined)	inactive	–
OC[C@H]1O[C@@H](S[C@@H]2O[C@H](CO)[C@H](O)[C@H](n3cc(-c4cccc(F)c4)nn3)[C@H]2O)[C@H](O)[C@@H](n2cc(-c3cccc(F)c3)nn2)[C@H]1O	inactive	–
CC(=O)OCCN1C(=O)c2c(C)nc3ccc(S(=O)(=O)N4CCOCC4)cc3c2C1=O	inactive	–
CC(C)Cc1ccc([C@@H](C)C(=O)NS(C)(=O)=O)cc1	inactive	–
